Target: T1, human CD24 (human, UniProt P25063 27-59)
T1 chain (looked up): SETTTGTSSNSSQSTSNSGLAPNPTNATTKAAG
Test: cell-based or functional assay

B1: 2-C2-IgG1 (bispecific antibody)
heavy: EVQLQESGPGLVKPSQTLSLTCTVSGYSITSGYTWHWIRQFPGNKLEWIGHIQYTGNTKYNPSLESRITISRDTSKNQFSLKLSSVTAADTATYYCARGSTNSNDYWGQGTLVTVSS[here human IgG1 constant region without letters]GGGGSGGGGSGGGGSQVQLQESGPGLVKPSETLSLTCTVSGSSLTSYGVHWVRQPPGKCLEGLGVIWPGGSTNYNSALMSRVTISKDNSKSQVSLKMSSLTAADTAVYYCARVTGTWYFDVWGQGTTVTVSSGGGGSGGGGSGGGGSDIQMTQSPSSLSASLGDRVTISCSASQGISNYLNWYQQKPDGTVKLLIYYTSTLHSGVPSRFSGSGSGTDYTLTISSLQPEDIATYYCQQYSKLPWTFGCGTKLEIK
light: DIVMTQSPSSLAVSLGERATINCKSSQSLLYSNDQKNYLAWYQQKPGQSPKLLIYWASTRESGVPDRFSGSGSGTDFTLTISSLQAEDVAVYYCQQYFIYPLTFGGGTKLELKRTVAAPSVFIFPPSDEQLKSGTASVVCLLNNFYPREAKVQWKVDNALQSGNSQESVTEQDSKDSTYSLSSTLTLSKADYEKHKVYACEVTHQGLSSPVTKSFNRGEC
B1 was tested, and the “ADCC: cleavage death of MCF-7 cells by NK cells (LDH release), EC50” value was 0.152 nM.

B2: 2-D2-IgG1 (bispecific antibody)
heavy: [here human IgG1 constant region without letters]
light: DIVMTQSPSSLAVSLGERATINCKSSQSLLYSNDQKNYLAWYQQKPGQSPKLLIYWASTRESGVPDRFSGSGSGTDFTLTISSLQAEDVAVYYCQQYFIYPLTFGGGTKLELKRTVAAPSVFIFPPSDEQLKSGTASVVCLLNNFYPREAKVQWKVDNALQSGNSQESVTEQDSKDSTYSLSSTLTLSKADYEKHKVYACEVTHQGLSSPVTKSFNRGECGGGGSGGGGSQVQLQESGPGLVKPSETLSLTCTVSGSSLTSYGVHWVRQPPGKCLEGLGVIWPGGSTNYNSALMSRVTISKDNSKSQVSLKMSSLTAADTAVYYCARVTGTWYFDVWGQGTTVTVSSGGGGSGGGGSGGGGSDIQMTQSPSSLSASLGDRVTISCSASQGISNYLNWYQQKPDGTVKLLIYYTSTLHSGVPSRFSGSGSGTDYTLTISSLQPEDIATYYCQQYSKLPWTFGCGTKLEIK
For B2, the “ADCC: cleavage death of MCF-7 cells by NK cells (LDH release), EC50” value was 0.414 nM.

Reference: patent publication US20250320309A1 (SHENGHE CHINA BIOPHARMACEUTICAL, published 2025)
